According to patent US20240150476A1 (Chugai, published 2024):

T1: soluble human IL-6R (human, UniProt P08887 20-357)
T1 construct: Expressed in CHO cells and purified from the supernatant; also called hsIL-6R; recombinant human IL6R
T1 sequence: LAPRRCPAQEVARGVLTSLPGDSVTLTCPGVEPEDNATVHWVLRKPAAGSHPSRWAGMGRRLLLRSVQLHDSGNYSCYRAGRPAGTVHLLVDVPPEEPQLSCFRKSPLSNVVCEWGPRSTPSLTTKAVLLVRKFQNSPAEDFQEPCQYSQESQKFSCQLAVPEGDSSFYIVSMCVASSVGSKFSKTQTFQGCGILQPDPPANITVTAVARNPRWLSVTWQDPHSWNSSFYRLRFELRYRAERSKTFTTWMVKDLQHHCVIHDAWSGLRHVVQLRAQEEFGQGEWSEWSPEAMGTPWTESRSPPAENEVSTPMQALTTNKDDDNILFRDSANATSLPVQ


The binders below were run against T1, soluble human IL-6R (assay: BLI (Octet), in the same way as in Example 3).

binding result | Binder
binds | 20A11-G1m/VL1-40-lamL (other, IgG antibody-like molecule) heavy: EVQLVESGGGLVQPGGSLRLSCAASGSVFKINVMAWYRQAPGKGRELVAGIISGGSTSYADSVKGRFTISRDNAKNTLYLQMNSLRPEDTAVYYCAFITTESDYDLGRRYWGQGTLVTVSS[skipping human IgG1 constant region] light: QSVLTQPPSVSGAPGQRVTISCTGSSSNIGAGYDVHWYQQLPGTAPKLLIYGNSNRPSGVPDRFSGSKSGTSASLAITGLQAEDEADYYCQSYDNSLNAVVFGGGTKLTVLGQPKAAPSVTLFPPSSEELQANKATLVCLISDFYPGAVTVAWKADSSPVKAGVETTTPSKQSNNKYAASSYLSLTPEQWKSHRSYSCQVTHEGSTVEKTVAPTECS
binds | 20A11-G1m/VL3-21-lamL (other, IgG antibody-like molecule) heavy: EVQLVESGGGLVQPGGSLRLSCAASGSVFKINVMAWYRQAPGKGRELVAGIISGGSTSYADSVKGRFTISRDNAKNTLYLQMNSLRPEDTAVYYCAFITTESDYDLGRRYWGQGTLVTVSS[skipping human IgG1 constant region] light: SYVLTQPPSVSVAPGKTARITCGGNNIGSKSVHWYQQKPGQAPVLVIYYDSDRPSGIPERFSGSNSGNTATLTISRVEAGDEADYYCQAWDSSTDVVFGGGTKLTVLGQPKAAPSVTLFPPSSEELQANKATLVCLISDFYPGAVTVAWKADSSPVKAGVETTTPSKQSNNKYAASSYLSLTPEQWKSHRSYSCQVTHEGSTVEKTVAPTECS
binds | 20A11-G1m/VL2-14-lamL (other, IgG antibody-like molecule) heavy: EVQLVESGGGLVQPGGSLRLSCAASGSVFKINVMAWYRQAPGKGRELVAGIISGGSTSYADSVKGRFTISRDNAKNTLYLQMNSLRPEDTAVYYCAFITTESDYDLGRRYWGQGTLVTVSS[skipping human IgG1 constant region] light: QSALTQPASVSGSPGQSITISCTGTSSDVGGYNYVSWYQQHPGKAPKLMIYEVSNRPSGVSNRFSGSKSGNTASLTISGLQAEDEADYYCSSYRSGYTLVVFGGGTKLTVLGQPKAAPSVTLFPPSSEELQANKATLVCLISDFYPGAVTVAWKADSSPVKAGVETTTPSKQSNNKYAASSYLSLTPEQWKSHRSYSCQVTHEGSTVEKTVAPTECS
